Results on eleven molecules are retold here after patent publication US20200347143A1 (GLENMARK PHARMACEUTICALS S A, published 2020).

T1: human OX40 on cells (human, UniProt P43489 29-277)
T1 sequence (looked up): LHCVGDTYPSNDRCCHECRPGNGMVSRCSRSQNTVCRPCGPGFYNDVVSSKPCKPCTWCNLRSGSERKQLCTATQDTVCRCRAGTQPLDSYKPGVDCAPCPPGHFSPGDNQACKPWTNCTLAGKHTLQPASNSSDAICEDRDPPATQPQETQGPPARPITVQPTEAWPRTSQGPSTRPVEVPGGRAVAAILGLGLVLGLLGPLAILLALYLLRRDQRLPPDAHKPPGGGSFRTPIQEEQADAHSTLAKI

B1: 106-222_1949 (bispecific antibody)
heavy: not shown
light: DIQMTQSPSSLSASVGDRVTITCKASQDVSTAVAWYQQKPGKAPKLLIYSASYLYTGVPSRFSGSGSGTDFTFTISSLQPEDIATYYCQQHYSTPRTFGQGTKLEIKRTVAAPSVFIFPPSDEQLKSGTASVVCLLNNFYPREAKVQWKVDNALQSGNSQESVTEQDSKDSTYSLSSTLTLSKADYEKHKVYACEVTHQGLSSPVTKSFNRGEC
B2: 106-222_hzG3v9 (bispecific antibody, human IgG1, kappa)
heavy: QVQLVQSGSELKKPGASVKVSCKASGYTFTDYSMHWVRQAPGQGLKWMGWINTETGEPTYADDFKGRFVFSLDTSVSTAYLQISSLKAEDTAVYYCANPYYDYVSYYAMDYWGQGTTVTVSSASTKGPSVFPLAPSSKSTSGGTAALGCLVKDYFPEPVTVSWNSGALTSGVHTFPAVLQSSGLYSLSSVVTVPSSSLGTQTYICNVNHKPSNTKVDKKV[sequence of human IgG1 Fc with changes omitted]GGGGTEVQLLESGGGEVQPGGSLRLSCAASGFTFSDAFMYWVRQAPGKEREWVSSISNRGLKTAYAESVKGRFTISRDNAKNTLYLQMSSLRAEDTAVYYCVEGDWNLGPRGQGTLVTVKP
light: B1 light
B3: 106-222_2H6_8 (bispecific antibody, human IgG1, kappa)
heavy: QVQLVQSGSELKKPGASVKVSCKASGYTFTDYSMHWVRQAPGQGLKWMGWINTETGEPTYADDFKGRFVFSLDTSVSTAYLQISSLKAEDTAVYYCANPYYDYVSYYAMDYWGQGTTVTVSSASTKGPSVFPLAPSSKSTSGGTAALGCLVKDYFPEPVTVSWNSGALTSGVHTFPAVLQSSGLYSLSSVVTVPSSSLGTQTYICNVNHKPSNTKVDKKV[sequence of human IgG1 Fc with changes omitted]GGGGTEVQLVESGGGLVQPGGSLRLSCAVSGYSITSDYAWNWIRQAPGKCLEWMGYISYSGSTAYNPSLKSRITISRDTSKNTFYLQMNSLRAEDTAVYYCARGPYNYLAYWGQGTLVTVSSGGGGSGGGGSGGGGSDIQLTQSPSSLSASVGDRVTITCRASESVDNYGISFMNWFQQKPGKAPKLLIYAASNQKSGVPSRFSGSGSGTDFTLTISSLQPEDFATYFCQQSKEVPLTFGCGTKVEIL
light: B1 light
B4: Tetra-13 (bispecific antibody, human IgG1, kappa)
heavy: QVQLVQSGAEVKKPGASVKVSCKASGYTFTRYYMHWVRQAPGQGLEWMGWIYPGEGSTKYAQKFQGRVTMTRDTSISTAYMELSRLRSDDTAVYYCAREYGNYDYWGQGTLVTVSS[sequence of human IgG1 constant region omitted]GGGTEVQLVESGGGLVQPGGSLRLSCAVSGYSITSDYAWNWIRQAPGKCLEWMGYISYSGSTAYNPSLKSRITISRDTSKNTFYLQMNSLRAEDTAVYYCARGPYNYLAYWGQGTLVTVSSGGGGSGGGGSGGGGSDIQLTQSPSSLSASVGDRVTITCRASESVDNYGISFMNWFQQKPGKAPKLLIYAASNQKSGVPSRFSGSGSGTDFTLTISSLQPEDFATYFCQQSKEVPLTFGCGTKVEIL
light: DIVMTQSPDSLAVSLGERATINCKSSQSLLNSGNQKNYLAWYQQKPGQPPKLLIYGASTRESGVPDRFSGSGSGTDFTLTISSLQAEDVAVYYCQNDHSYPYTFGQGTKLEIKRTVAAPSVFIFPPSDEQLKSGTASVVCLLNNFYPREAKVQWKVDNALQSGNSQESVTEQDSKDSTYSLSSTLTLSKADYEKHKVYACEVTHQGLSSPVTKSFNRGEC
B5: Tetra-16 (antibody, human IgG1, kappa)
heavy: QVQLVQSGAEVKKPGASVKVSCKASGYTFTRYYMHWVRQAPGQGLEWMGWIYPGEGSTKYAQKFQGRVTMTRDTSISTAYMELSRLRSDDTAVYYCAREYGNYDYWGQGTLVTVSSASTKGPSVFPLAPSSKSTSGGTAALGCLVKDYFPEPVTVSWNSGALTSGVHTFPAVLQSSGLYSLSSVVTVPSSSLGTQTYICNVNHKPSNTKVDKKV[sequence of human IgG1 Fc with changes omitted]GGGGTQVQLVQSGAEVKKPGASVKVSCKASGYTFTRYYMHWVRQAPGQCLEWMGWIYPGEGSTKYAQKFQGRVTMTRDTSISTAYMELSRLRSDDTAVYYCAREYGNYDYWGQGTLVTVSSGGGGSGGGGSGGGGSDIVMTQSPDSLAVSLGERATINCKSSQSLLNSGNQKNYLAWYQQKPGQPPKLLIYGASTRESGVPDRFSGSGSGTDFTLTISSLQAEDVAVYYCQNDHSYPYTFGCGTKLEIL
light: B4 light
B6: 7H11_1949_8 (bispecific antibody)
heavy: not shown
light: B4 light
B7: 7H11_hzG3v9_8 (bispecific antibody, human IgG1, kappa)
heavy: QVQLVQSGAEVKKPGASVKVSCKASGYTFTRYYMHWVRQAPGQGLEWMGWIYPGEGSTKYAQKFQGRVTMTRDTSISTAYMELSRLRSDDTAVYYCAREYGNYDYWGQGTLVTVSSASTKGPSVFPLAPSSKSTSGGTAALGCLVKDYFPEPVTVSWNSGALTSGVHTFPAVLQSSGLYSLSSVVTVPSSSLGTQTYICNVNHKPSNTKVDKKV[sequence of human IgG1 Fc with changes omitted]GGGGTEVQLLESGGGEVQPGGSLRLSCAASGFTFSDAFMYWVRQAPGKEREWVSSISNRGLKTAYAESVKGRFTISRDNAKNTLYLQMSSLRAEDTAVYYCVEGDWNLGPRGQGTLVTVKP
light: B4 light
B8: Tetra-17 (antibody, human IgG1, kappa)
heavy: QVQLVQSGAEVKKPGASVKVSCKASGYTFTRYYMHWVRQAPGQGLEWMGWIYPGEGSTKYAQKFQGRVTMTRDTSISTAYMELSRLRSDDTAVYYCAREYGNYDYWGQGTLVTVSSASTKGPSVFPLAPSSKSTSGGTAALGCLVKDYFPEPVTVSWNSGALTSGVHTFPAVLQSSGLYSLSSVVTVPSSSLGTQTYICNVNHKPSNTKVDKKV[sequence of human IgG1 Fc with changes omitted]GGGGTQVQLVQSGAEVKKPGASVKVSCKASGYTFTRYYMHWVRQAPGQGLEWMGWIYPGEGSTKYAQKFQGRVTMTRDTSISTAYMELSRLRSDDTAVYYCAREYGNYDYWGQGTLVTVSSASTKGPSVFPLAPSSKSTSGGTAALGCLVKDYFPEPVTVSWNSGALTSGVHTFPAVLQSSGLYSLSSVVTVPSSSLGTQTYICNVNHKPSNTKVDKKVEPKSC
light: B4 light
B9: 7H11_9B12_8 (bispecific antibody, human IgG1, kappa)
heavy: QVQLVQSGAEVKKPGASVKVSCKASGYTFTRYYMHWVRQAPGQGLEWMGWIYPGEGSTKYAQKFQGRVTMTRDTSISTAYMELSRLRSDDTAVYYCAREYGNYDYWGQGTLVTVSSASTKGPSVFPLAPSSKSTSGGTAALGCLVKDYFPEPVTVSWNSGALTSGVHTFPAVLQSSGLYSLSSVVTVPSSSLGTQTYICNVNHKPSNTKVDKKV[sequence of human IgG1 Fc with changes omitted]GGGGTQVQLQESGPGLVKPSQTLSLTCAVYGGSFSSGYWNWIRKHPGKCLEYIGYISYNGITYHNPSLKSRITINRDTSKNQYSLQLNSVTPEDTAVYYCARYKYDYDGGHAMDYWGQGTLVTVSSGGGGSGGGGSGGGGSDIQMTQSPSSLSASVGDRVTITCRASQDISNYLNWYQQKPGKAPKLLIYYTSKLHSGVPSRFSGSGSGTDYTLTISSLQPEDFATYYCQQGSALPWTFGCGTKVEIK
light: B4 light
B10: 9B12_1949 (bispecific antibody)
heavy: not shown
light: DIQMTQSPSSLSASVGDRVTITCRASQDISNYLNWYQQKPGKAPKLLIYYTSKLHSGVPSRFSGSGSGTDYTLTISSLQPEDFATYYCQQGSALPWTFGQGTKVEIKRTVAAPSVFIFPPSDEQLKSGTASVVCLLNNFYPREAKVQWKVDNALQSGNSQESVTEQDSKDSTYSLSSTLTLSKADYEKHKVYACEVTHQGLSSPVTKSFNRGEC
B11: 9B12_hzG3v9 (bispecific antibody, human IgG1, kappa)
heavy: QVQLQESGPGLVKPSQTLSLTCAVYGGSFSSGYWNWIRKHPGKGLEYIGYISYNGITYHNPSLKSRITINRDTSKNQYSLQLNSVTPEDTAVYYCARYKYDYDGGHAMDYWGQGTLVTVSSASTKGPSVFPLAPSSKSTSGGTAALGCLVKDYFPEPVTVSWNSGALTSGVHTFPAVLQSSGLYSLSSVVTVPSSSLGTQTYICNVNHKPSNTKVDKKV[sequence of human IgG1 Fc with changes omitted]GGGGTEVQLLESGGGEVQPGGSLRLSCAASGFTFSDAFMYWVRQAPGKEREWVSSISNRGLKTAYAESVKGRFTISRDNAKNTLYLQMSSLRAEDTAVYYCVEGDWNLGPRGQGTLVTVKP
light: B10 light

In the experiment the target is T1, human OX40 on cells. In words: cell-based or functional assay.
With B1, the “% donor responder (>2), SEB assay, IL-2 release” value (“% donor responder” for short) was 9% and the “Mean, normalized IL-2 release, SEB assay” value turned out to be 0.84.
Take B2: the “% donor responder” value is 0% and the “Mean, normalized IL-2 release, SEB assay” value was 0.51.
For B3 the same measures were 9% and 1.3.
Taken in the same sequence, the figures for B4 were 64% and 2.6.
For the molecule B5, the “% donor responder” value turned out to be 33% and the “Mean, normalized IL-2 release, SEB assay” value was found to be 1.72.
For B6 the same measures were 100% and 11.9.
Taken in the same sequence, the figures for B7 were 100% and 30.3.
As for B8, the “% donor responder” value amounted to 8% and the “Mean, normalized IL-2 release, SEB assay” value was 1.05.
Taken in the same sequence, the figures for B9 were 73% and 6.47.
On to B10, for which the “% donor responder” value stood at 18% and the “Mean, normalized IL-2 release, SEB assay” value was found to be 1.6.
Taken in the same sequence, the figures for B11 were 91% and 12.4.
